The source gives no read counts; variants with many changes may rest on few reads.
B1: CPEB3 Ribozyme (parent)
chain: UAACAGGGGGCCACAGCAGAAGCGUUCACGUCGCAGCCCCUGUCAGAUUCUGGUGAAUCUGCGAAUUCUGCUGUAUAUCUC

Variants of: B1
Assay: self-cleavage, relative activity (ratio to wild type); higher = more cleavage; in vitro, sequencing
Procedure, shortened: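 Barcoded CPEB3 ribozyme mutants, produced by rounds of error-prone PCR, self-cleaved while being transcribed with T7 RNA polymerase for 5 hours at 37°C and during a subsequent 15 min DNase I step before EDTA was added. Sequencing of template-switched cDNA on Illumina gave cleaved and total reads, and DNA sequencing assigned barcodes to variants. Each variant's relative activity is its cleaved/total read fraction divided by the unmutated ribozyme's fraction, averaged across three batches. A variant needed a minimum of 5 reads.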

Variant	self-cleavage
U31C U60C U76C	0.57
U31C A56U U80A	0.22
U31C G36A A45G	0.08
U31C U43G A45U G73A U76A	0.11
U31C U41G U72C	0.31
C32A A56G U74C	0.22
U31G U43C U54C	0.18
U31C U49C C81U	0.48
U31C G36A U43A U49A	0.51
U31C G63A U72C	0.6
U31C A56G A57C U78C	0.15
U31C U41A C62A U80C	0.21
U31C U41G A56G	0.08
U31C C40A U67A U69A	0.08
U31C U41C A57C U78C	0.36
U31G A47U U51C U58C U80C	0.11
U31C U41C A65G	0.39
U31C A64U U74C	0.24
C32A A45G U66C	0.16
C32A C38G U41A	0.3
C32A U41A C50U U51G U60C U67C	0.05
U31C C39A U78C	0.43
U31C G73C U78C	1.18
U31C A56G U60G A65U	0.07

Variant	self-cleavage
U31G U69A U80C	0.28
U31C U41C A45U U67C	0.16
U31C C40A U54C A56G U67C	0.34
U31C G52U U54G U69C U80A	0.35
U31C U60A G63A	0.27
U31G C32G U41C U54C U66C U67C U80C	0.08
U31C U51C A64U U72G	0.18
U31C A56U G63A	0.38
U31C U41C A57U C81A	0.83
U31G A47G U49C	0.19
C32A C38U U51C	0.3
U31C U72A U80G	0.65
U31C U72A U80A	0.98
U31G C32U U49G C50G U58C	0.14
U31C C32G G36A A45G C59U U69A	0.1
U31C G33A C40U U54C	0.12
U31C A64G U78C	0.39
U31C C62G U76G A77U	0.1
U31G C37U A45U U72A	0.07
U31C U41A A57G U66C	0.16
U31C G33U A45U	0.15
U31C C38U C44U A75G	0.13
U31C U41C A56G A57G	0.35
U31C U48C U78G	0.28

Variant	self-cleavage
U31C A56U U72C A77G U80C	0.48
C32A A56U U76C	0.5
U31C A45U U67C	0.2
U31C C40U U48C	0.15
U31C U43C A64G U78C	0.07
C32A C34A A45U	0.23
U31C U49C U54C C62U G63A U66C U80C	0.1
U31C U43A U67A	0.5
U31C A47G U60C U76C	0.15
U31C U60C U72A A77G	0.17
U31C U41C U54C U72C A77U	0.98
U31G C39G U43C U72A	0.18
U31C C37G U51A A57G	0.08
U31C A64G U72C	0.6
U31C U43G U60C	0.22
U31C A45U U49C A57U U78C	0.11
U31C A56G A65G	0.35
U31C G36U C81U	0.09
U31C C38A C40U A57G	0.13
U31C U54C G63A U66C U80C	0.21
U31C U49C U74C C79U	0.65
U31C U51A U69A	0.46
U31G U43A U66G	0.18
U31C C44U U54G	0.09

Variant	self-cleavage
U31C U51C G63C A64U U80A	0.13
U31C A56G U72C	0.79
U31C C34G U54A A56G	0.19
U31C A56G U78A	0.46
U31C U67A U69C U78C	0.18
U31C U41A A56U A64G A75U	0.17
U31C U54C A56G U67A U69C	0.52
U31G U41C U66C U72A	0.14
U31C C32U A65G	0.1
U31G A56U U60C	0.38
U31C G36A G63C U69C U76C	0.1
U31C C68A U76C	0.21
U31C U51C A64G U76C U78C	0.25
U31C G42A U43C A57G	0.09
U31C U43G A45G	0.18
U31C A65U C68G U80C	0.12
U31C A45U U60C A65U	0.1
U31C A56G G73C U80C	0.44
U31C U43C G61U A65G U69A	0.2
U31C U41C G63U	0.98
C32A A57G U80A	0.1
U31C C34U U41A U54A	0.23
U31C C39A A45G	0.15
U31C U58A U67C U72C	0.26

Variant	self-cleavage
U31C U41A A45G C68A C71A U78A	0.07
U31C U49C G55A	0.32
U31C U66C U72G	0.25
U31C A56G U58C U67C G70A	0.11
U31C U48C U80A	0.41
U31G A35U U43A U74A	0.28
U31C C44G U51C U58C A65G U78C	0.06
U31G U43C U69A	0.17
U31C U51G C62U	0.17
U31C U48C U74A	0.46
C32A A47G U48C G73C	0.24
U31C C32U U54C A56U A57G	0.07
U31C C40U U67A	0.23
U31C C39U A75G	0.28
U31C U41A A56G	0.26
U31G A35G U66A	0.95
U31C A47G A56G U66C A75G	0.08
U31C G52A A64U	0.24
U31C U48C A65G	0.08
U31C U43A A45G U49C A64C	0.07
U31C U49C A65G	0.13
U31C G42C U67A U80C	0.1
U31C U49C U72C	0.2
U31C G63C U72C	0.79

Variant	self-cleavage
U31G U41A U51C U69C	0.18
U31C C39A A57U U78C	0.13
U31C U54G U58C	0.21
U31G A35G U78A	1.24
U31G G63C A64G	0.21
U31C U48C A56G	0.4
U31C C32G U78C	0.11
U31G A45C U80A	0.46
C32A C50U U51G	0.23
U31C A56U U78C	0.41
U31C U54A U67C A77U	0.25
U31C G36A A45G A65G U69C	0.21
U31C C37G U72A A77G	0.51
U31C U41A U69C	0.22
U31C C40A U41C U48C A77G	0.09
U31C U43A U48A U58A	0.14
U31C C40A U67C	0.16
C32A U41C A45C	0.16
U31C C32U A57G	0.16
U31G C34U G46U U51A G55A A56U	0.04
C32A A56U U78C	0.5
U31C A47U U48C U54C A77G	0.08
U31C U51A A56G C62A	0.17
U31C C32G C38A U41C U67C U69C C71G	0.13

Variant	self-cleavage
U31C U58A U80C	0.52
U31C U43A A57G U69A	0.35
U31C U72G A77G	0.53
U31C G33C U41G U43C G63U	0.11
U31C U41A U72C U80C	0.11
U31C C39A A47G	0.19
U31G U54A A64G C68U	0.36
U31C U41C A57G	0.8
U31C A65C U72C	0.13
U31C U54A A56G A57G U66A C71A U72C	0.17
U31C A47G U49G U54A U72C U78C	0.2
U31C A47G U58C	1
U31C U43C A57G	0.42
C32A A45U U51C	0.12
U31C G42A U72G	0.18
U31C U41A U43C	0.12
U31C G33U G36U U49C A64G U78C	0.06
U31C C38G A56U	0.19
U31C A47U U51A U60A U72C	0.09
C32A A45U U80C	0.19
U31C C32U U54C U67C	0.13
U31C A57G A64G	0.1
U31C U60C U78C U80C	0.2
